Test results as given in the supplement of paper PMC8728848.
The other results are listed elsewhere or left out.

Tests used:
Experiment in all cases: glycan array binding signal (z-score within array); higher = stronger binding
Conditions in all cases: glycan notation: IUPAC condensed, linker removed
GlcNAc(b1-6)GalNAc = target: GlcNAc(b1-6)GalNAc
Summary of the method: (§1)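 Glycan array data came from 3228 arrays in the Consortium for Functional Glycomics database, and only arrays with an available protein sequence were kept. Glycan names were put into IUPAC-condensed notation, and columns mapping to the same glycan were averaged. The binding signal is a within-array Z-score, averaged across arrays of one protein sequence run at different concentrations or buffers and across linkers. A negative Z-score can be read as non-binding.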

GlcNAc3Prop(b1-4)GlcNAc = target: GlcNAc3Prop(b1-4)GlcNAc
Summary of the method: as §1

[1] = target: GlcNAc6S(b1-3)Gal(b1-4)GlcNAc
Summary of the method: as §1

Kdn(a2-3)Gal(b1-3)GalNAc = target: Kdn(a2-3)Gal(b1-3)GalNAc
Summary of the method: as §1

Kdn(a2-3)Gal(b1-3)GlcNAc = target: Kdn(a2-3)Gal(b1-3)GlcNAc
Summary of the method: as §1

Kdn(a2-3)Gal(b1-4)Glc = target: Kdn(a2-3)Gal(b1-4)Glc
Summary of the method: as §1

Kdn(a2-3)Gal(b1-4)GlcNAc = target: Kdn(a2-3)Gal(b1-4)GlcNAc
Summary of the method: as §1

[2] = target: Kdn(a2-3)Gal(b1-4)[Fuc(a1-3)]GlcNAc
Summary of the method: as §1

Kdn(a2-6)Gal(b1-4)GlcNAc = target: Kdn(a2-6)Gal(b1-4)GlcNAc
Summary of the method: as §1

[3] = target: Man(a1-2)Man(a1-2)Man(a1-3)Man
Summary of the method: as §1

[4] = target: Man(a1-2)Man(a1-2)Man(a1-6)[Man(a1-3)]Man
Summary of the method: as §1

Man(a1-2)Man(a1-3)Man = target: Man(a1-2)Man(a1-3)Man
Summary of the method: as §1

[5] = target: Man(a1-2)Man(a1-3)[Man(a1-2)Man(a1-6)]Man
Summary of the method: as §1

[6] = target: Man(a1-2)Man(a1-3)[Man(a1-2)Man(a1-6)]Man(a1-6)[Man(a1-2)Man(a1-2)Man(a1-3)]Man
Summary of the method: as §1

[7] = target: Man(a1-2)Man(a1-3)[Man(a1-2)Man(a1-6)]Man(a1-6)[Man(a1-2)Man(a1-2)Man(a1-3)]Man(b1-4)GlcNAc(b1-4)GlcNAc
Summary of the method: as §1

[8] = target: Man(a1-2)Man(a1-3)[Man(a1-6)]Man(a1-6)[Man(a1-2)Man(a1-3)]Man(b1-4)GlcNAc(b1-4)GlcNAc
Summary of the method: as §1

[9] = target: Man(a1-2)Man(a1-6)[Man(a1-3)]Man(a1-6)[Man(a1-2)Man(a1-2)Man(a1-3)]Man
Summary of the method: as §1

[10] = target: Man(a1-2)Man(a1-6)[Man(a1-3)]Man(a1-6)[Man(a1-2)Man(a1-2)Man(a1-3)]Man(b1-4)GlcNAc(b1-4)GlcNAc
Summary of the method: as §1

Man(a1-3)[Man(a1-6)]Man = target: Man(a1-3)[Man(a1-6)]Man
Summary of the method: as §1

[11] = target: Man(a1-3)[Man(a1-6)]Man(a1-6)[Man(a1-2)Man(a1-3)]Man(b1-4)GlcNAc(b1-4)GlcNAc
Summary of the method: as §1

[12] = target: Man(a1-3)[Man(a1-6)]Man(a1-6)[Man(a1-3)]Man
Summary of the method: as §1

[13] = target: Man(a1-3)[Man(a1-6)]Man(a1-6)[Man(a1-3)]Man(b1-4)GlcNAc(b1-4)GlcNAc
Summary of the method: as §1

[14] = target: Man(a1-3)[Man(a1-6)]Man(b1-4)GlcNAc(b1-4)GlcNAc
Summary of the method: as §1

Man(a1-6)Man = target: Man(a1-6)Man
Summary of the method: as §1

Man(b1-4)GlcNAc = target: Man(b1-4)GlcNAc
Summary of the method: as §1

Neu5Ac(a2-3)Gal = target: Neu5Ac(a2-3)Gal
Summary of the method: as §1

[15] = target: Neu5Ac(a2-3)Gal(b1-3)GalNAc
Summary of the method: as §1

[16] = target: Neu5Ac(a2-3)Gal(b1-3)GalNAc(b1-3)Gal(a1-4)Gal(b1-4)Glc
Summary of the method: as §1

[17] = target: Neu5Ac(a2-3)Gal(b1-3)GalNAc(b1-3)Gal(b1-4)GlcNAc
Summary of the method: as §1

[18] = target: Neu5Ac(a2-3)Gal(b1-3)GalNAc(b1-4)[Neu5Ac(a2-3)]Gal(b1-4)Glc
Summary of the method: as §1

[19] = target: Neu5Ac(a2-3)Gal(b1-3)GalNAc6S
Summary of the method: as §1

[20] = target: Neu5Ac(a2-3)Gal(b1-3)GlcNAc
Summary of the method: as §1

[21] = target: Neu5Ac(a2-3)Gal(b1-3)GlcNAc(b1-3)Gal(b1-3)GlcNAc
Summary of the method: as §1

[22] = target: Neu5Ac(a2-3)Gal(b1-3)GlcNAc6S
Summary of the method: as §1

[23] = target: Neu5Ac(a2-3)Gal(b1-3)[Fuc(a1-4)]GlcNAc
Summary of the method: as §1

[24] = target: Neu5Ac(a2-3)Gal(b1-3)[Fuc(a1-4)]GlcNAc(b1-3)Gal(b1-3)[Fuc(a1-4)]GlcNAc
Summary of the method: as §1

B1: Flo11 (Saccharomyces cerevisiae), Q1H8S8 (protein)
chain: MGSSHHHHHHSSGLVPRGSHMFPTALVPRGSSEGTSCNSIVNGCPNLDFNWHMDQQNIMQYTLDVTSVSWVQDNTYQITIHVKGKENIDLKYLWSLKIIGVTGPKGTVQLYGYNENTYLIDNPTDFTATFEVYATQDVNSCQVWMPNFQIQFEYLQGSAAQYASSWQWGTTSFDLSTGCNNYDNQGHSQTDFPGFYWNIDCDNNCGGTKSS
glycan array binding signal (z-score) (GlcNAc(b1-6)GalNAc): -0.461
glycan array binding signal (z-score) (GlcNAc3Prop(b1-4)GlcNAc): -0.508
glycan array binding signal (z-score) [1]: 0.409
glycan array binding signal (z-score) (Kdn(a2-3)Gal(b1-3)GalNAc): 0.387
glycan array binding signal (z-score) (Kdn(a2-3)Gal(b1-3)GlcNAc): -0.491
glycan array binding signal (z-score) (Kdn(a2-3)Gal(b1-4)Glc): -0.508
glycan array binding signal (z-score) (Kdn(a2-3)Gal(b1-4)GlcNAc): -0.496
glycan array binding signal (z-score) [2]: 0.794
glycan array binding signal (z-score) (Kdn(a2-6)Gal(b1-4)GlcNAc): -0.508
glycan array binding signal (z-score) [3]: -0.505
glycan array binding signal (z-score) [4]: -0.507
glycan array binding signal (z-score) (Man(a1-2)Man(a1-3)Man): -0.503
glycan array binding signal (z-score) [5]: -0.502
glycan array binding signal (z-score) [6]: -0.505
glycan array binding signal (z-score) [7]: -0.495
glycan array binding signal (z-score) [8]: -0.495
glycan array binding signal (z-score) [9]: -0.504
glycan array binding signal (z-score) [10]: -0.502
glycan array binding signal (z-score) (Man(a1-3)[Man(a1-6)]Man): -0.502
glycan array binding signal (z-score) [11]: -0.506
glycan array binding signal (z-score) [12]: -0.511
glycan array binding signal (z-score) [13]: -0.496
glycan array binding signal (z-score) [14]: -0.495
glycan array binding signal (z-score) (Man(a1-6)Man): -0.504
glycan array binding signal (z-score) (Man(b1-4)GlcNAc): -0.499
glycan array binding signal (z-score) (Neu5Ac(a2-3)Gal): -0.5
glycan array binding signal (z-score) [15]: 1.29
glycan array binding signal (z-score) [16]: 3.08
glycan array binding signal (z-score) [17]: 1.81
glycan array binding signal (z-score) [18]: 1.08
glycan array binding signal (z-score) [19]: -0.492
glycan array binding signal (z-score) [20]: -0.499
glycan array binding signal (z-score) [21]: 2.01
glycan array binding signal (z-score) [22]: -0.511
glycan array binding signal (z-score) [23]: -0.504
glycan array binding signal (z-score) [24]: -0.487
